Data on two sequences can be found in publication PMC7215681.

Protein sequences, listed by entry. Tags and fused reporters are not part of them.
UniProt P22199: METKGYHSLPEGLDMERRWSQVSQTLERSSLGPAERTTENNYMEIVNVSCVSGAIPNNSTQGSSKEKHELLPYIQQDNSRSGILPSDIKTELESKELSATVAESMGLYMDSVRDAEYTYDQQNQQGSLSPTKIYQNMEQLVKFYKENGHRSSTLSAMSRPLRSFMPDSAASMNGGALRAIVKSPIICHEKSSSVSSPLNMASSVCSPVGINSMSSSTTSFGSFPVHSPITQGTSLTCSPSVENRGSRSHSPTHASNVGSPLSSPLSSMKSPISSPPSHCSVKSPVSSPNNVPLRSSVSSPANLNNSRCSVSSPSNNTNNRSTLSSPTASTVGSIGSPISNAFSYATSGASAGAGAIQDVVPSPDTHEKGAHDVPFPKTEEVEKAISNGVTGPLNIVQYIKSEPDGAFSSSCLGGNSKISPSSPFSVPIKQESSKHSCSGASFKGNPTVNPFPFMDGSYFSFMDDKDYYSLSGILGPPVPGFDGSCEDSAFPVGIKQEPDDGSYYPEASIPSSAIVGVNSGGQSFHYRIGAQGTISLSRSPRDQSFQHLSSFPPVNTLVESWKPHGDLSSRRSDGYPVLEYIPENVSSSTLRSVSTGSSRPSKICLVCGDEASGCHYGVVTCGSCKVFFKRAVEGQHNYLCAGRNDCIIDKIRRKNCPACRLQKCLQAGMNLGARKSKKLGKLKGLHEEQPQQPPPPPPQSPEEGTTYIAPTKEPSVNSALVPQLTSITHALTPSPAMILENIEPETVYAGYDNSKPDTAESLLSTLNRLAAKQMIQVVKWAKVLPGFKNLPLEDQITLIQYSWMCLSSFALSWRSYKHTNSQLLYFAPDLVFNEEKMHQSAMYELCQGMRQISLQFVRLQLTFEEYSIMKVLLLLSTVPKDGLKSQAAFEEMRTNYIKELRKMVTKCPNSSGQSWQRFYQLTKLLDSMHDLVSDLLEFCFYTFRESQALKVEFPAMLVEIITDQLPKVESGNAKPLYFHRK
UniProt Q62833: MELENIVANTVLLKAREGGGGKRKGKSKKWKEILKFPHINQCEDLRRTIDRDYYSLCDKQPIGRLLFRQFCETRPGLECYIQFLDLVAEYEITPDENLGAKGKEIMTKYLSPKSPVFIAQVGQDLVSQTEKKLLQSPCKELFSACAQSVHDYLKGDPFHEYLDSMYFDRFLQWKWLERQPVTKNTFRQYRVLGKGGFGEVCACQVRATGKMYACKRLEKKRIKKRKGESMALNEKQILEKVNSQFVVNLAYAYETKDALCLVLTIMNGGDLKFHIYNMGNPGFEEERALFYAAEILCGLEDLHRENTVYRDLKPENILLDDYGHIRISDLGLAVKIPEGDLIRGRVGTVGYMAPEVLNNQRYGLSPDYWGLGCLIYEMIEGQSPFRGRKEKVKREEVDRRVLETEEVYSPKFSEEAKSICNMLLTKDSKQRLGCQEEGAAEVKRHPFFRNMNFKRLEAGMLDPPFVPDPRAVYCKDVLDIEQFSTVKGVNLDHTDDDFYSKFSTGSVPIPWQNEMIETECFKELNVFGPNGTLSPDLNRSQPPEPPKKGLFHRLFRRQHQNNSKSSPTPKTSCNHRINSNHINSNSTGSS
UniProt P26817: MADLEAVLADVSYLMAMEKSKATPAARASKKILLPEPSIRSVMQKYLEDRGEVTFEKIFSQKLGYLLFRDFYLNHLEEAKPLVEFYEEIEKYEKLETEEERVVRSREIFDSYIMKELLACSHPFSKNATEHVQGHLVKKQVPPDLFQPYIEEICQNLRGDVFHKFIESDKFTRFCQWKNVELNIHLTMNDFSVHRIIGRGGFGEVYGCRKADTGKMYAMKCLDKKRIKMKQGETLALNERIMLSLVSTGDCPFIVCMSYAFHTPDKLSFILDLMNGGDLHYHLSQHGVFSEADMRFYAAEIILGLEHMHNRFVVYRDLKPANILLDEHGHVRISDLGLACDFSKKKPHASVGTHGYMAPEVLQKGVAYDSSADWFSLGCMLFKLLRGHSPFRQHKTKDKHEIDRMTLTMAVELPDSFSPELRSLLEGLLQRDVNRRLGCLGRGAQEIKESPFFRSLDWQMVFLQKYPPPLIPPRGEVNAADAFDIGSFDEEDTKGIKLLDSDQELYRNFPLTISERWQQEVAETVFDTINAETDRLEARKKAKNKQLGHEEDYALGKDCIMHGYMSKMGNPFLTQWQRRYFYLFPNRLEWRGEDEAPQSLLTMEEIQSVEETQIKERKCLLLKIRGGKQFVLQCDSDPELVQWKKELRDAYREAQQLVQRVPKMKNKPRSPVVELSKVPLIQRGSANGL

In test [1] the target is mineralocorticoid receptor (rat (endogenous in H9c2)) (UniProt P22199). The test can be described thus: co-IP; MR immunoprecipitated from nuclear fraction extracts of H9c2 cells (NE-PER fractionation), untreated or 100 nM aldosterone 30 min, immunoblot for GRK5.
Test [2] has the same target. The test can be described thus: co-IP; MR immunoprecipitated from cytosolic fraction extracts of H9c2 cells (NE-PER fractionation), untreated or 100 nM aldosterone 30 min, immunoblot for GRK5. On the technique in general: A western blot detects proteins with antibodies after separation by electrophoresis.
Test [3] has as its target T1, G protein-coupled estrogen receptor (rat (endogenous in H9c2)) (UniProt O08878).
T1 sequence: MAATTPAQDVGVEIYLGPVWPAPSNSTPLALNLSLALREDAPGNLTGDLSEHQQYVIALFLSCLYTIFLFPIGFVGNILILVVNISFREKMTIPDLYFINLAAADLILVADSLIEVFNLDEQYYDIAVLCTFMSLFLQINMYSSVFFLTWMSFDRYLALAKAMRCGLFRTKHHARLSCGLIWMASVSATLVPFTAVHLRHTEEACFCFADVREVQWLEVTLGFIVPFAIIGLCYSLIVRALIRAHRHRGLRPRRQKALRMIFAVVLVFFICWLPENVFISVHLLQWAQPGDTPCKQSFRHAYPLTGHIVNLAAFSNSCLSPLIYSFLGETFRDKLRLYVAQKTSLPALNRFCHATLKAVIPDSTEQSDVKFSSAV
As to the kind of experiment: co-IP; GPER immunoprecipitated (anti-GPER on Protein A/G-Sepharose) from H9c2 extracts, immunoblot for GRK2 or GRK5; cells treated 15 min with vehicle, 100 nM G1 or 100 nM aldosterone.

The target of test [4] is mineralocorticoid receptor (rat (endogenous in H9c2)) (UniProt P22199). The test can be described thus: co-IP; MR immunoprecipitated (anti-MR on Protein A/G-Sepharose, overnight) from H9c2 whole cell extracts (20 mM Tris pH 7.4, 137 mM NaCl, 1% Nonidet P-40, 20% glycerol), immunoblot for GRK2 or GRK5; cells treated 15 min with vehicle, 100 nM G1, 100 nM aldosterone, 10 µM isoproterenol or 10 µM formoterol, or 30 min with 10 µM salbutamol with or without 10 µM U73122.

Test [5] has as its target T1, G protein-coupled estrogen receptor (rat (endogenous in H9c2)). As to the kind of experiment: co-IP; GPER immunoprecipitated from H9c2 extracts, immunoblot for GRK2; the sample without GPER agonist (vehicle, DMSO).

These are yes or no findings as the source states them, for the method shown. Binding seen in cells or lysates may run through a third protein. Some binding calls cover weakened binding; strength is not graded here.

Regarding “G protein-coupled receptor kinase 5 (from UniProt Q62833 1-590) (enzyme)”, the binding result is “no binding (condition: in nuclear fraction extracts)” in test [1], “binds” in test [2], “no binding” in test [3] and “binds” in test [4].
“G protein-coupled receptor kinase 2 (from UniProt P26817 1-689) (enzyme)”: the binding entry in test [5] was “no binding (condition: without GPER agonist (vehicle))”; in test [3] it was “binds”; in test [4] it was “no binding”.
